Test results taken from PubChem BioAssay AID1240 (Sanford-Burnham Center for Chemical Genomics, 2008).
Several values for one entry are separate records, joined by “and”; a condition that tells them apart may be missing. Equal values may be shown once. Out of some 50,000 compounds screened, about 800 (1.6%) showed an effect of 50% or more. The list shows a part of the results.

Each molecule was assayed against Bcl-2-like protein 10 (Homo sapiens) (UniProt Q9HD36) (assay: TR3 peptide-Bcl-B binding displacers, biochemical primary FP assay, phenotype converters (AID 1240;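 also: 0% = Bcl-B with tracer peptide and DMSO and 100% = tracer peptide lacking Bcl-B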)). Settings: GST-Bcl-B / FITC-TR3 peptide fluorescence polarization; stronger effect = higher value; compound at 3.75 mg/L.
UniProt Q9HD36, sequence (Q9HD36 whole entry, looked up): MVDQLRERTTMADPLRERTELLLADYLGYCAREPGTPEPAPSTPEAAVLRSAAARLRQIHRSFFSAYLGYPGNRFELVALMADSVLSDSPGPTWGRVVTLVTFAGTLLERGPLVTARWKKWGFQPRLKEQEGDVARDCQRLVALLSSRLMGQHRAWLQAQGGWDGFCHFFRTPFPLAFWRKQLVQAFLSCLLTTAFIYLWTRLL

First: CCOC(=O)c1c(-c2ccc(Cl)cc2)csc1NC(=O)c1ccccc1OC
Second: COc1ccc(O)c(-c2c(-c3ccc(Cl)cc3)n[nH]c2C)c1
The displacement of the first is higher: 10.2% for the first, -7.9% for the second.

First: COc1cc(Br)cc(/C=C2\C(=O)NC(=O)N(c3ccc(Cl)cc3)C2=O)c1OC
Second: Cc1cccc(/C=C2\C(=O)NC(=O)N(c3ccc(Br)c(C)c3)C2=O)c1
The displacement of the first is lower: -12.5% for the first, -9.1% for the second.

First: COc1cc(/C=C2\C(=O)N(c3ccc(S(N)(=O)=O)cc3)N=C2C)cc(Cl)c1OC(C)C
Second: COc1ccc(C(=O)Nc2ccc([N+](=O)[O-])cc2Cl)cc1OC
The displacement of the first is lower: 0.6% for the first, 9.1% for the second.

Going from `O=C(COc1ccc(Cl)cc1Br)NNC(=O)c1cccc(Br)c1` to `CC(=O)Nc1ccc(NC(=O)COc2ccc(Cl)cc2Br)cc1`, the displacement falls from -6% to -10.8%.

First: COc1ccc(CN2CCN(Cc3cccc([N+](=O)[O-])c3)CC2)cc1Br
Second: CSc1ccc(CN2CCN(C(=O)c3ccccc3F)CC2)cc1
The displacement of the first is lower: -9.2% for the first, -8.1% for the second.

Compared with `O=C1CC(N2CCN(Cc3ccc4c(c3)OCO4)CC2)C(=O)N1c1cc(Cl)cc(Cl)c1` (stereo unspecified), `O=C(O)CCCCCN1C(=O)C(=O)/C(=C(/O)c2ccc(Cl)cc2)C1c1ccc2c(c1)OCO2` (stereo unspecified) is lower in displacement: 2.4% for the first, -1.5% for the second.

First: CCOC(=O)c1cc2c(nc1N)COC(C)(C)C2
Second: CCSc1nnc2n(-c3ccc(OC)cc3)c(=O)c3c4c(sc3n12)COC(C)(C)C4
The displacement of the first is lower: -6% for the first, -0.7% for the second.

Going from `O=C(O)c1cccc2c1NC(c1ccc(Cl)cc1)C1CC=CC21` (stereo unspecified) to `O=C(O)CCCN1C(=O)C(=O)/C(=C(\O)c2ccc(Cl)cc2)C1c1ccc(F)cc1` (stereo unspecified), the displacement falls from 148% to -0.6%.

Going from `Cc1ccc(N2C(=O)CC(Cc3ccc(Cl)cc3)C2=O)cc1` (stereo unspecified) to `COc1ccc(NC(=O)CC(C)Cc2ccc(Cl)cc2)cc1` (stereo unspecified), the displacement falls from 10.3% to 0.5%.

Going from `Cc1ccc(C(=O)CSc2ncn[nH]2)cc1` to `COc1ccc(OC(C)C(=O)Nc2ncn[nH]2)cc1` (stereo unspecified), the displacement falls from 13.3% to -4.4%.

Going from `COc1ccc(OC)c(C2=C/C(=C/c3ccccc3[N+](=O)[O-])C(=O)O2)c1` to `COc1ccc(OC)c(/C=N/NC(=O)c2c[nH]c3ccccc23)c1`, the displacement rises from 3.3% to 4.5%.

Compared with `Cc1cc(NC(=O)c2ccc3c(c2)C(=O)N(C(C)(C)C)C3=O)no1`, `Cc1ccc(-c2nc3ncccc3o2)cc1NC(=O)c1cccc([N+](=O)[O-])c1` is lower in displacement: 5.1% for the first, -4.7% for the second.

First: O=C(C1CCCC1)N1CCN(c2ccc([N+](=O)[O-])cc2)CC1
Second: Cc1cccc(N2CCN(C(=O)c3ccc(Cl)cc3Cl)CC2)c1C
The displacement of the first is lower: -0.8% for the first, 0.7% for the second.

Compared with `Cc1ccc(N(CC(=O)Nc2cccc3cccnc23)S(=O)(=O)c2ccc(C)cc2)cc1`, `CCOc1ccc(N(CC(=O)Nc2ccccc2C(=O)OC)S(=O)(=O)c2ccc(SC)cc2)cc1` is higher in displacement: -6.1% for the first, 14.7% for the second.

Compared with `COC(=O)C(Cc1ccc(O)cc1)N=Cc1ccccc1O` (stereo unspecified), `COc1ccc(NC(=O)C(=O)N/N=C/c2ccccc2O)cc1` is higher in displacement: 3.2% for the first, 10.4% for the second.

`C/C(CC(=O)NC12CC3CC(CC(C3)C1)C2)=N\NC(=O)c1ccccc1Cl` and `CCOC(=O)N1CCN(C(=O)Nc2cccc3ccccc23)CC1` are the same in displacement: -4.2% for the first, -4.2% for the second.

Compared with `Cc1cc(Nc2cc(Cl)cc(Cl)c2)n2ncnc2n1`, `Cc1cc(C)n(-c2cc(N/N=C\c3ccc(N(C)C)cc3)nc(C)n2)n1` is lower in displacement: 17.6% for the first, -8.7% for the second.

Compared with `O=C1NC(=O)C(=Cc2ccccc2OS(=O)(=O)c2ccc([N+](=O)[O-])cc2)C(=O)N1`, `Cc1cc(Nc2ccc([N+](=O)[O-])cc2)nc(-c2ccccc2O)n1` is lower in displacement: 5.9% for the first, -1.4% for the second.

First: Cc1ccc(S(=O)(=O)/N=C(\N)Nc2nc3ccccc3o2)cc1
Second: Cc1ccc(SCCNS(=O)(=O)c2ccc(C)cc2)cc1
The displacement of the first is lower: -7.3% for the first, -1.8% for the second.

Compared with `NS(=O)(=O)c1ccc(NC(=O)c2ccc(Oc3ccccc3)cc2)cc1`, `CS(=O)(=O)N(Cc1ccc(C(=O)NCc2ccc(Cl)cc2)cc1)c1ccccc1` is lower in displacement: 13.4% for the first, 0.2% for the second.

First: C=CCc1cccc(/C=N/c2nc3ccccc3n2CCC)c1O
Second: COc1ccc2oc(=O)c(-c3csc(/N=C/c4ccccc4O)n3)cc2c1
The displacement of the first is higher: 1.4% for the first, -16% for the second.

Going from `COc1cccc(C2C(C(=O)Nc3ccccc3)=C(C)N=c3s/c(=C\c4ccc(N(C)C)o4)c(=O)n32)c1` (stereo unspecified) to `COc1cccc(-c2cc(C(=O)Nc3nc4ccccc4s3)c3ccccc3n2)c1`, the displacement falls from 4.3% to -4%.

Going from `N/C(Cc1ccc([N+](=O)[O-])cc1)=N\OC(=O)c1cccc(Br)c1` to `N/C(=N\OC(=O)Cc1ccc(Cl)cc1)c1ccccn1`, the displacement rises from 1.6% to 2.5%.

First: O=C(/C=C/c1ccc(F)cc1)Nc1ccc(N2CCOCC2)cc1
Second: O=C(/C=C/c1ccccc1)Oc1ccc(C(=S)N2CCOCC2)cc1
The displacement of the first is lower: 5.3% for the first, 14.1% for the second.

First: O=C(CC1Sc2ccccc2NC1=O)Nc1ccc(O)cc1 (stereo unspecified)
Second: CC1=C(C(=O)Nc2ccc(Br)cc2)C(c2ccccc2)NC(=O)N1C (stereo unspecified)
The displacement of the first is lower: 3.8% for the first, 5% for the second.

Going from `Cc1ccc(C)c(-c2nn(-c3cc(N4CCCC4)ccc3[N+](=O)[O-])c(=O)c3ccccc23)c1` to `O=C1NC(=O)N(c2ccccc2)C(=O)/C1=C/c1ccc(N2CCCC2)cc1`, the displacement falls from 12.9% to -30.2%.

Going from `CCOC(=O)c1sc(NC(=O)/C=C/c2cccs2)c(C(=O)OCC)c1C` to `COC(=O)c1c(NC(=O)c2cccc([N+](=O)[O-])c2)sc(C)c1C`, the displacement falls from -8.1% to -8.5%.

First: CC1(C)CC(=O)C2=C(C1)Nc1ccccc1NC2c1coc2ccc(Cl)cc2c1=O (stereo unspecified)
Second: CC1(C)CC(=O)C2=C(C1)Nc1ccccc1N1C(=O)c3ccccc3C21 (stereo unspecified)
The displacement of the first is lower: -11.9% for the first, -4.3% for the second.

Compared with `Oc1ccc(/C=N/Nc2ccc(C(F)(F)F)cn2)c(O)c1`, `COc1cc([N+](=O)[O-])cc(/C=N/NC2=NS(=O)(=O)c3ccccc32)c1O` is higher in displacement: -14.9% for the first, -2.8% for the second.

Compared with `COc1cc(/C=N/N2C(=O)c3ccccc3C2=O)ccc1OCc1ccc(F)cc1`, `COc1cc(C2/C(=C(\O)c3ccccc3)C(=O)C(=O)N2c2ccccn2)ccc1O` (stereo unspecified) is higher in displacement: 2.1% for the first, 3.3% for the second.

First: O=C(Nc1nccs1)c1ccc2c(c1)OCO2
Second: Cc1ccc(C(=O)Nc2nc(-c3ccc(F)cc3)cs2)o1
The displacement of the first is higher: 32.1% for the first, -2.9% for the second.

First: COc1cccc(NC2=NC3(CCCC3)N=C(N)N2)c1
Second: CCOc1cccc(C(=O)Nc2cccc(OC)c2)c1
The displacement of the first is lower: -1.6% for the first, 12.7% for the second.

Compared with `O=S(=O)(c1cccc2ccccc12)n1cnc2ccccc21`, `O=C(CSc1nc2ccccc2c(=O)n1Cc1ccccc1)c1ccc(Cl)cc1` is lower in displacement: 6.3% for the first, -9.1% for the second.

Going from `O=C1NC(=O)/C(=C/c2cc(Cl)ccc2O)N1` to `COc1ccc(Cl)cc1N=CC1=C(O)CC(C)(C)CC1=O`, the displacement falls from 8% to 3.1%.

Compared with `COc1ccc(/C=N\N2CCN(c3ccc(Cl)cc3)CC2)cc1O`, `COc1cccc(/C=N\N2CCN(c3ccc(C)cc3)CC2)c1O` is lower in displacement: 2.2% for the first, 0.4% for the second.

Compared with `Cc1ccc(-c2nc3ccccn3c2NC(=O)c2ccccc2)cc1`, `Cc1cc(NC(=O)c2ccccc2I)ccc1NC(=O)c1ccccc1` is lower in displacement: 9.4% for the first, -0.6% for the second.

First: COc1ccc(C2C(C(=O)OCCOc3ccccc3)=C(C)NC3=C2C(=O)CC(C)(C)C3)c(OC)c1 (stereo unspecified)
Second: Cc1cc(=O)[nH]c(SC(C(=O)c2ccccc2)c2ccccc2)n1 (stereo unspecified)
The displacement of the first is lower: -4.5% for the first, 14% for the second.

Compared with `O=C(c1ccncc1)N1N=C(c2cccc([N+](=O)[O-])c2)CC1(O)C(F)(F)F` (stereo unspecified), `O=C(O)CCCN1C(=O)C(=O)/C(=C(/O)c2ccccc2)C1c1cccc([N+](=O)[O-])c1` (stereo unspecified) is lower in displacement: -4.8% for the first, -5.1% for the second.

Going from `CN(C)c1ccc(/C=C(\NC(=O)c2ccccc2)C(=O)NCc2ccncc2)cc1` to `CC1=NN(C(=O)Cc2ccccc2)C(O)(c2cccnc2)C1` (stereo unspecified), the displacement rises from 5.3% to 12.6%.

Compared with `CCOC(=O)c1c(NC(=S)NC(=O)c2ccc(OC)cc2)sc2c1CCC(C)C2` (stereo unspecified), `COc1ccc(OC)c(NC(=O)C(=O)NNC(=O)c2cccs2)c1` is lower in displacement: 8% for the first, 1.4% for the second.

Compared with `Cc1cc(C)n(S(=O)(=O)c2ccc(F)cc2)n1`, `O=C(Nc1cccc(F)c1)c1ccc(Br)c(S(=O)(=O)N2CCCCC2)c1` is lower in displacement: 6.7% for the first, -3% for the second.

Going from `O=[N+]([O-])c1ccc(N2CCOCC2)c(-c2nn[nH]n2)c1` to `O=[N+]([O-])c1ccc2nc3c4ccccc4n(CCCN4CCOCC4)c3cc2c1`, the displacement rises from -10.8% to 40.9%.

First: COc1cc(/C=C2\SC(=S)N(Cc3ccco3)C2=O)ccc1O
Second: COc1cc(/C=N/N=C2/SC(CC(=O)O)C(=O)N2c2ccc(O)cc2)ccc1O (stereo unspecified)
The displacement of the first is higher: 19% for the first, 8.7% for the second.

Compared with `Cc1ccccc1C(=O)c1coc2ccccc2c1=O`, `Cc1ccc(/C=C2N=C(/C=C/c3ccccc3)OC/2=O)s1` is higher in displacement: 1.8% for the first, 8.1% for the second.

Compared with `CCC(=O)c1ccc(N2CCN(C(=O)c3cccs3)CC2)c(F)c1`, `CN(C)c1ccc(/C=C2/SC(N3CCOCC3)=NC2=O)cc1` is higher in displacement: -4.8% for the first, 27.3% for the second.

Going from `NC(=O)c1cccc(N=Cc2ccc[nH]2)c1` to `CC(N=CC1=C(O)CNC1=O)c1ccccc1` (stereo unspecified), the displacement rises from -1.6% to 5%.

Going from `CCN(CC)CCCNC(=O)c1nn2c(C(F)(F)F)cc(-c3ccco3)nc2c1Cl` to `CCCc1c(O)nc(SCCN(CC)CC)n(C(=O)c2ccccc2)c1=O`, the displacement falls from 1.8% to -4.8%.

Going from `CC(Oc1ccccc1)C(=O)NC(c1ccccc1)c1ccccc1` (stereo unspecified) to `Cc1ccc(S(=O)(=O)NC(C)c2ccc(-c3ccccc3)cc2)cc1[N+](=O)[O-]` (stereo unspecified), the displacement rises from 3.8% to 14%.

Going from `CCOc1ccc(-c2[nH]c3ccc(Cl)c[n+]3c2C)cc1` to `COc1ccc(C)cc1NC(=O)C(=O)NNC(=O)c1ccc(C(C)(C)C)cc1`, the displacement rises from -5.8% to -1.5%.

Compared with `Cc1cc(-n2cc(Br)c(=O)[nH]c2=O)nc(-c2ccccc2)n1`, `Cc1c(C=O)cc2c(c1C)OC1(C=C2)N(C)c2ccccc2C1(C)C` (stereo unspecified) is higher in displacement: -95.1% for the first, 14.2% for the second.

First: CNc1c([N+](=O)[O-])cnc(N/C=C/C=C/C=C(C#N)C#N)c1C#N
Second: CC(C)(C)c1csc(N/N=C/c2ccc(C#N)cc2)n1
The displacement of the first is lower: -5.3% for the first, 7.1% for the second.

Compared with `COC(=O)C1=CNC=C(C(=O)OC)C1c1cc(C)ccc1C`, `C=CCNC(=O)C(=O)Nc1cc(C)cc(C)c1` is higher in displacement: 3.5% for the first, 7.1% for the second.

In the case of `CC(C)(C)N(Cc1ccccc1)C(=O)CN1C(=O)/C(=C/c2ccccc2)SC1=S`, the displacement is reported as -7.7%.

For `COc1ccc(CNCc2ccccc2)cc1`, the displacement was -1.2% and 9.2%.
